Among all 150,000 compounds or so, about 190 (0.13%) were called active. The inconclusive results got no clear call from the source; some entries with a clear call stand among them for comparison. The call rests on the fitted dose curve; in most records, active means well fitted inhibition curve with a large enough effect; inconclusive means small, poorly fitted or top-dose-only effect; inactive means flat fitted curve, though single readings scatter. Potencies beside an inconclusive call are fits to weak or partial responses and may not hold up.
Each compound was assayed against Polyunsaturated fatty acid lipoxygenase ALOX12 (Homo sapiens) (UniProt P18054) (assay: qHTS Assay for Inhibitors of 12-hLO (12-human lipoxygenase)). Conditions: purified 12-hLO, xylenol orange hydroperoxide absorbance; series mostly up to 57.1 µM; activity change, negative = inhibition: at the top concentration.
Sequence of UniProt P18054 (P18054 whole entry, looked up): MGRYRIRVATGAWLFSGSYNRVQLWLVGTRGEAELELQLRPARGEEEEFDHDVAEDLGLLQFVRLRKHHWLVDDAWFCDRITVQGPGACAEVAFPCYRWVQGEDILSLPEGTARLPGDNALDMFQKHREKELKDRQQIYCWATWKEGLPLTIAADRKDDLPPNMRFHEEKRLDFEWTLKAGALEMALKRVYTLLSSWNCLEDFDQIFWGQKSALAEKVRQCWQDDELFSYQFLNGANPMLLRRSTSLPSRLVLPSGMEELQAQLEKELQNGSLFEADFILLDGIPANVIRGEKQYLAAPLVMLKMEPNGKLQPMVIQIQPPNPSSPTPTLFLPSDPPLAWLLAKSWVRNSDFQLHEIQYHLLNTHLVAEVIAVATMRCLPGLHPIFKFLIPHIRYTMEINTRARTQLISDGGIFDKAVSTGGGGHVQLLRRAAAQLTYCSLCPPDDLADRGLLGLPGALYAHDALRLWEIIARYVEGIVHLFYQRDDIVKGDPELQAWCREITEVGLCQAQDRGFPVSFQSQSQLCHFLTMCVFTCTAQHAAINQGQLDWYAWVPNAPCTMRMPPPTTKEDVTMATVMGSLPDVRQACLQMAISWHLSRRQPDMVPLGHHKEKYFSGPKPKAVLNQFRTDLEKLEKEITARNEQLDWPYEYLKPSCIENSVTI
In short: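 150 nM 12hLO, 25 mM Hepes pH 7.0 + 0.01% Triton X-100; cpd preinc 15 min RT; 40 uM arachidonic acid, 30 min RT; Fe-XO 30 min; A573/A405 ratio as read-out.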
`CCOC(=O)C1=C(C)NC2=C(C(=O)CCC2)C1c1cn(Cc2ccc(Cl)cc2Cl)nc1-c1ccccc1` (stereo unspecified) was tested, and the Potency was inconclusive: 15.8 µM [inhibitor, partial curve].
With `Cc1cc2c(cc(C(=O)NCc3cccnc3)n2Cc2ccc(Cl)cc2)o1` the Potency was inconclusive: 22.4 µM [inhibitor, single point].
With `CC1Cn2c(nnc2-c2cc3ccccc3cc2O)S1` (stereo unspecified) the Potency was inconclusive: 14.1 µM [inhibitor, partial curve].
In the case of `Cc1[nH]n(-c2ccccc2)c(=O)c1C(c1ccc(C(=O)O)cc1)c1c(C)[nH]n(-c2ccccc2)c1=O`, the “activity change, negative = inhibition” value is reported as inactive: 1.15%.
With `c1ccc(CSc2ncnc3c2cnn3-c2ccccc2)cc1` the “activity change, negative = inhibition” value was inactive: 0.523%.
With `O=C(O)[C@@H](O)[C@@H](O)[C@H](O)C(=O)CO` the activity change, negative = inhibition was inactive: -2.06% [at 11.4 µM].
`CCN(CC)c1ccc(/C=N/NC(=S)NCc2ccccc2)cc1` was tested, and the Potency was active: 25.1 µM.
In the case of `CCc1cc(-c2n[nH]c(=S)n2-c2cccc(C)c2)cs1`, the Potency is reported as inconclusive: 11.2 µM [inhibitor, partial curve].
In the case of `Cc1cccc(C(=O)NC(=S)Nc2ccccc2C(F)(F)F)c1`, the Potency is reported as inconclusive: 15.8 µM [inhibitor, partial curve].
`CC(CCc1ccccc1)NC(=O)c1ccc(NC(=O)c2cccc(Br)c2)cc1` (stereo unspecified) was tested, and the “activity change, negative = inhibition” value was inactive: -7.28%.
`CC/C=C\C[C@H](O)/C=C/C=C\C/C=C\C/C=C\CCCC(=O)O` was tested, and the “activity change, negative = inhibition” value was inactive: 5.28%.
In the case of `COc1ccc(NS(=O)(=O)c2cc(OC)ccc2NC(=O)c2cc(C)oc2C)cc1`, the Potency is reported as inconclusive: 15.8 µM [inhibitor, partial curve].
In the case of `O=C(O)C1Cc2ccccc2CN1C(=O)c1ccccc1Cl` (stereo unspecified), the “activity change, negative = inhibition” value is reported as inactive: -5.89%.
`O=C/C(=C\Nc1ccccn1)c1nc2cc(Cl)ccc2o1` was tested, and the Potency was inconclusive: 12.6 µM [inhibitor, partial curve].
In the case of `CS(=O)(=O)Nc1ccc(C2=NN(C(=O)c3ccco3)C(c3ccccc3)C2)cc1` (stereo unspecified), the “activity change, negative = inhibition” value is reported as inactive: -0.0451%.
For `C/C(CC(=O)Nc1cc(Cl)ccc1Cl)=N\NC(N)=S`, the Potency was inconclusive: 17.8 µM [inhibitor, single point].
In the case of `Cc1nn2c(c1-c1ccc(Cl)cc1)N=C(c1ccco1)CC2c1ccccc1` (stereo unspecified), the Potency is reported as inconclusive: 14.1 µM [inhibitor, partial curve].
With `O=C1NC(c2cccc(Br)c2)=N/C1=C\c1ccco1` the Potency was inconclusive: 25.1 µM [inhibitor, single point].
In the case of `CCC(=O)Nc1cccc(NC(=S)NC(=O)c2cccc(C)c2)c1`, the Potency is reported as inconclusive: 25.1 µM [inhibitor, single point].
`O=C(NC(=S)NCc1ccc(F)cc1)c1ccccc1` was tested, and the Potency was inconclusive: 7.08 µM [inhibitor, single point].
With `CC(C)Nc1oc(-c2cccc3ccccc23)nc1C#N` the Potency was inconclusive: 8.91 µM [inhibitor, partial curve].
With `CN(C)/C=C1\C(=O)N(c2ccc([N+](=O)[O-])cc2)N=C1c1ccccc1` the Potency was inconclusive: 39.8 µM [inhibitor, single point].
For `CCOc1cccc(CNc2ccc(O)cc2)c1OCc1ccc(Cl)cc1Cl`, the Potency was inconclusive: 2.82 µM [inhibitor, full curve].
For `CCOC(=O)C1=C(O)c2ccccc2C(=O)/C1=C\c1ccc(CC)cc1`, the Potency was inconclusive: 22.4 µM [inhibitor, single point].
`Fc1cc(Br)ccc1NC(=S)NCCc1ccccc1` was tested, and the Potency was inconclusive: 31.6 µM [inhibitor, single point].
With `CC(=Nc1ccccc1)C1=C(O)COC1=O` the Potency was inconclusive: 0.316 µM [inhibitor, full curve].
For `Cc1nc2ccccc2n1CC(=O)NCc1ccccc1`, the “activity change, negative = inhibition” value was inactive: -0.685%.
In the case of `O=C1c2ccccc2C(=O)c2c1cccc2N1CCCC1`, the Potency is reported as inconclusive: 39.8 µM [inhibitor, single point].
`Cc1ccc(S(=O)(=O)NC(=O)OC23COCN2COC3)cc1` was tested, and the activity change, negative = inhibition was inactive: 0.408% [at 11.4 µM].
`O=C(Sc1nnnn1C1CCCCC1)c1cccs1` was tested, and the “activity change, negative = inhibition” value was inactive: -9.8%.
With `COc1ccc2[nH]c(C)c(CCN(Cc3cccs3)C(=S)Nc3cccc(F)c3)c2c1` the Potency was inconclusive: 7.94 µM [inhibitor, partial curve].
For `Cc1cccc(N=C2NC(=O)/C(=C/C=C/c3ccco3)S2)c1C`, the Potency was inconclusive: 14.1 µM [inhibitor, partial curve].
In the case of `O=C(NC(=S)NCc1ccccc1)c1ccccc1F`, the Potency is reported as inconclusive: 14.1 µM [inhibitor, partial curve].
With `CCN(CC)C(=O)c1cc2sc3ccccc3c2s1` the Potency was inconclusive: 31.6 µM [inhibitor, single point].
`Cc1ccc(C)c2[nH]c(=O)c(CN(Cc3ccc4c(c3)OCO4)Cc3nnnn3Cc3ccco3)cc12` was tested, and the Potency was inconclusive: 28.2 µM [inhibitor, partial curve].
With `CCOc1cc(CNCCO)cc(Br)c1OCc1ccc(Cl)cc1Cl` the Potency was inconclusive: 22.4 µM [inhibitor, single point].
For `CCOC(=O)c1sc(NC(=O)CSc2nccc(C)n2)c(C#N)c1C`, the “activity change, negative = inhibition” value was inactive: -3.14%.
For `CC(=O)c1cccc(NC(=S)NCCC2=CCCCC2)c1`, the Potency was inconclusive: 35.5 µM [inhibitor, single point].
`O=C(CN1CCN(c2ccccn2)CC1)N1c2ccccc2Sc2ccc(C(F)(F)F)cc21` was tested, and the Potency was inconclusive: 35.5 µM [inhibitor, single point].
With `CN1CCN(C(c2cccnc2)c2ccc3cccnc3c2O)CC1` (stereo unspecified) the Potency was active: 1.58 µM.
`Cc1cc(C)cc(NS(=O)(=O)c2ccc(NC(=S)NC(=O)c3cccs3)cc2)c1` was tested, and the Potency was inconclusive: 12.6 µM [inhibitor, partial curve].
For `S=C(NCc1ccccc1)NCc1ccc2c(c1)OCO2`, the “activity change, negative = inhibition” value was inactive: -6.88%.
With `COc1ccc2[nH]c(C)c(CCNC(=S)Nc3ccccc3C)c2c1` the Potency was inconclusive: 31.6 µM [inhibitor, single point].
With `C=CCN=c1scc(-c2ccccc2)n1/N=C/c1ccccn1` the “activity change, negative = inhibition” value was inactive: -0.78%.
With `COc1ccc(C2CC3(CC(C)(C)NC(=S)N3)Oc3cc(O)cc(C)c32)cc1` (stereo unspecified) the Potency was inconclusive: 14.1 µM [inhibitor, partial curve].
With `COc1ccc(C(=O)NC(=S)Nc2ccccc2N2CCN(S(C)(=O)=O)CC2)cc1OC` the Potency was inconclusive: 11.2 µM [inhibitor, partial curve].
For `O=C(NCc1ccccc1)c1cccc(COc2ccc(Cl)cc2)c1`, the Potency was inconclusive: 20 µM [inhibitor, partial curve, poor fit].
In the case of `CCn1cc(C(C)NC(=O)COc2ccc(Cl)cc2C)c(C)n1` (stereo unspecified), the “activity change, negative = inhibition” value is reported as inactive: -0.682%.
In the case of `COc1ccc(/C=N/Nc2snc(SC)c2C#N)cc1OC`, the “activity change, negative = inhibition” value is reported as inactive: -11.9%.
With `CC(C)Oc1cccc(C(=O)NC(=S)Nc2ccccc2)c1` the Potency was inconclusive: 3.16 µM [inhibitor, full curve].
For `NC(=S)N/N=C/c1ccc(-c2cc(Cl)cc(Cl)c2)o1`, the Potency was inconclusive: 14.1 µM [inhibitor, partial curve].
For `COc1ccc(-c2cc(OC(=O)c3ccc(F)cc3)c3c(C)oc(C)c3c(=O)c2)cc1`, the Potency was inconclusive: 15.8 µM [inhibitor, partial curve].
`COc1ccc2ccc3c(c2c1)N=C[C@]1(O3)N(C)c2ccccc2C1(C)C` was tested, and the Potency was inconclusive: 25.1 µM [inhibitor, partial curve].
With `CC[C@H](C)[C@H](NC(=O)OCC1c2ccccc2-c2ccccc21)C(=O)O` the “activity change, negative = inhibition” value was inactive: -0.91%.
With `COC(=O)[C@@]1(Cc2ccc(OC)cc2)[C@H]2c3cc(C(=O)N4CCCC4)n(CCc4ccc(O)c(O)c4)c3C[C@H]2CN1C(=O)c1ccccc1` the Potency was inconclusive: 14.1 µM [inhibitor, partial curve].
In the case of `Cc1cccc(OCC(O)CN2CC3(C)CC2CC(C)(C)C3)c1` (stereo unspecified), the “activity change, negative = inhibition” value is reported as inactive: -0.168%.
For `O=C(OCc1cnc(Cl)s1)c1cccc(Cl)c1Cl`, the Potency was inconclusive: 39.8 µM [inhibitor, single point].
With `O=C1c2ccccc2NC(c2ccc(Cl)cc2Cl)N1O` (stereo unspecified) the Potency was inconclusive: 0.794 µM [inhibitor, partial curve].
With `Cc1cccc(S(=O)(=O)c2c(N)n(/N=C/c3ccco3)c3nc4ccccc4nc23)c1` the Potency was inconclusive: 15.8 µM [inhibitor, partial curve].
`O=C(Cn1cnc2c(nnn2Cc2ccccc2)c1=O)N1CCN(c2ccccc2)CC1` was tested, and the “activity change, negative = inhibition” value was inactive: -4.15%.
For `CC(C)OC(=O)COc1ccc(-c2ccccc2)cc1`, the “activity change, negative = inhibition” value was inactive: -4.79%.
With `O=c1c2c([N+](=O)[O-])cc([N+](=O)[O-])cc2sn1-c1ccc(Br)cc1` the Potency was active: 3.16 µM.
With `N/C(=N\OC(=O)N1c2ccccc2Sc2ccccc21)c1ccc(Br)cc1` the Potency was inconclusive: 20 µM [inhibitor, single point].
`Oc1sc(C=Nc2ccccc2)c2ccccc12` was tested, and the Potency was inconclusive: 39.8 µM [inhibitor, single point].
For `CCCCCCCC1(C)NC(=O)N(c2ccccc2)N1` (stereo unspecified), the Potency was inconclusive: 3.16 µM [inhibitor, full curve].
For `S=C(NCc1ccc(Cl)cc1)Nc1ccccc1`, the Potency was inconclusive: 28.2 µM [inhibitor, single point].
In the case of `CN1CCN(C(=O)c2ccc3ccccc3c2)CC1`, the “activity change, negative = inhibition” value is reported as inactive: -2.01%.
With `Cc1nn(-c2ccccc2)c(N)c1N=Nc1ccc(Cl)cc1` the Potency was inconclusive: 11.2 µM [inhibitor, partial curve].
For `CCc1ccc(C(=O)/C=C/c2ccc([N+](=O)[O-])o2)cc1`, the Potency was inconclusive: 14.1 µM [inhibitor, partial curve].
`N#CC1=C(SCC(=O)c2ccc(Br)cc2)NC2=C(C(=O)CCC2)C1c1ccco1` (stereo unspecified) was tested, and the Potency was inconclusive: 10 µM [inhibitor, partial curve].
With `Clc1ccccc1CSc1nnc(-c2ccco2)c(-c2ccco2)n1` the Potency was inconclusive: 28.2 µM [inhibitor, single point].
Further: nearly all actives have a fitted effect of over 55% in size.
On the % scale 0 is the no-effect control and ±100 the full control effect; potency means the concentration at half of the fitted maximal effect; tags describe the fitted curve by direction and shape.
